Experimental data taken from ChEMBL document CHEMBL1201862, “PubChem BioAssay data set” (2004).
Counter-ions that a name gives are not always drawn.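 Method: 48-hour compound exposure of cells in 96-well plates, five concentrations, linear interpolation of endpoints. At the GI50, growth is halved.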 The source made the active and inactive calls. No stated cut-off is given here; in the data, active = GI50 up to about 1.1 µM and inactive = higher. Square brackets hold non-standard residues; d marks the D form. Peptide text beside a SMILES is read from it. * marks the point of attachment. Bn2Val = CC(C)[C@@H](C(=O)*)N(Cc1ccccc1)Cc1ccccc1; NH(4-F-benzyl) = Fc1ccc(CN*)cc1; NMeV = CN[C@H](C(=O)O)C(C)C; dNMeA = CN[C@H](C)C(=O)O

System: NCI-H322M
Experiment: DTP human tumour cell line panel, 48 h

| Compound | GI50 |
| --- | --- |
| Cc1cc(Cl)cc2c1NC(=O)C2(O)CC(=O)c1ccc(Br)cc1 (centres undefined) | inactive: 99.8 µM |
| O=C1/C(=C/C=C/c2ccccc2)CCC1CNc1ccccc1 (centres undefined) | inactive: > 100 µM |
| O=C(c1no[n+]([O-])c1C(=O)c1csc2ccccc12)c1csc2ccccc12 | inactive: 16.7 µM |
| O=c1c(Nc2ccccc2)cn(CCOc2ccc(Cl)cc2)c(=O)n1CCOc1ccc(Cl)cc1 | inactive: > 100 µM |
| Cc1csc(-n2nc(C)cc2C)n1 | inactive: > 100 µM |
| Cc1ccc2cccc(OC(=O)c3cc4c(cc3Cl)Sc3nccn3S4(=O)=O)c2n1 | inactive: 13.8 µM |
| CCSCCCCC(c1ccc(O)cc1)C(C)(CC)c1ccc(O)cc1 (centres undefined) | inactive: > 100 µM |
| NC(=S)NS(=O)(=O)c1ccc(Cl)cc1 | inactive: > 100 µM |
| COc1ccccc1/N=N/C(=N\NC(=O)c1ccc(C)cc1)c1ccc(N(CCC#N)CCC#N)cc1C | inactive: 57.4 µM |
| Nc1cc2c3c(cccc3c1)C(=O)N(c1ccc(OCCN3CCCCC3)cc1)C2=O | inactive: 18.4 µM |
| CC(=O)O[C@H]1C(=O)[C@@]2(C)[C@H]([C@H](OC(=O)c3ccccc3)[C@]3(O)C[C@H](OC(=O)[C@H](O)[C@@H](NC(=O)c4ccccc4)c4cccc(N(C)C)c4)C(C)=C1C3(C)C)[C@]1(OC(C)=O)CO[C@@H]1C[C@@H]2O | inactive: 2.36 µM |
| CCN1CCN(c2nc3ccccc3c3c2CCOc2ccccc2-3)CC1 | inactive: > 45.4 µM |
| CSc1ccsc1-c1sc(-c2cc(SC)c(-c3sc(-c4cc(SC)c(-c5sccc5SC)s4)cc3SC)s2)cc1SC | inactive: > 100 µM |
| O=C1CCCC2=C1CC1=C(CCCC1=O)N2c1ccc([N+](=O)[O-])cc1 | inactive: > 100 µM |
| CSc1nc(Br)nc2ncn(C3CC(Oc4ccc(C)cc4)C(COc4ccc(C)cc4)O3)c12 (centres undefined) | inactive: > 100 µM |
| COC(=O)c1csc(-c2nc(CCNC(=O)OC(C)(C)C)sc2Br)n1 | inactive: > 100 µM |
| Cc1[nH]c(-c2ccccc2)c2nc(N(C)C)oc(=O)c12 | inactive: > 100 µM |
| C[C@]12CCC(N3CCCC3)CC1=CC[C@@H]1[C@@H]2CC[C@]2(C)C(O)[C@H](n3ccnc3)C[C@@H]12 (some centres undefined) | inactive: > 100 µM |
| C#CC(O)/C=C/C(O)CCCC(O)CC#CC(O)C#CCCCCC(O)/C=C/CCCC(=O)CCCCCCCCCCCCCCCC(O)C(O)C#CC(=O)O (centres undefined) | inactive: > 25 µM |
| CC(C)n1c(=O)n(-c2ccccc2)n(C(C)(C)C)c1=O | inactive: > 100 µM |
| COc1cc([C@H]2c3cc4c(cc3O[C@@]3(O)COC(=O)[C@@H]23)OCO4)cc(OC)c1OC | inactive: > 100 µM |
| COC(=O)Nc1nc2cc(C(=O)c3ccc[nH]3)ccc2[nH]1 | inactive: 6.07 µM |
| O=C1c2cc3c(cc2[C@@H]2NC4CCCC14O2)OCO3 (some centres undefined) | inactive: > 100 µM |

| Compound | GI50 |
| --- | --- |
| COc1ccc2c(c1)C1Oc3ccccc3CC1CO2 (centres undefined) | inactive: 81.7 µM |
| CCCCN(CCCC)CC(C(=O)Nc1ccc([N+](=O)[O-])cc1[N+](=O)[O-])/C(C)=N\NC(=O)C[N+](C)(C)C (centres undefined) | inactive: > 100 µM |
| CC1(C)CCC2=C(O1)c1ccccc1C(=O)C2=O [LAPACHONE] | active: 0.946 µM |
| Cc1cc(C)c(C#N)c(SC(=S)NC(=O)c2ccc(Cl)cc2)n1 | inactive: > 100 µM |
| O=C1C2Cc3ccccc3CN2C(=O)N1CCN1CCOCC1 (centres undefined) | inactive: > 100 µM |
| Cc1c(-c2ccccc2)c(C#N)c2nnc(C(N)=O)c(N)n12 | inactive: > 100 µM |
| S=C1Cc2cc3ccccc3nc2-c2ccccc2N1 | inactive: 19.2 µM |
| CC(=O)/C(=N\N=C(N)N)c1ccccc1 | inactive: > 100 µM |
| CC(C)C(C/C=C1/CC(CO)(COC(=O)c2ccccc2)OC1=O)C(C)C (centres undefined) | inactive: 14.9 µM |
| COc1cc2c(c(OC)c1OC)-c1ccc(SC)c(=O)cc1C(CC(=O)Oc1cccc(F)c1)C2 (centres undefined) | inactive: 2.51 µM |
| C=C1N(C=O)C(C)(C)N(O)C1(C)C | inactive: > 100 µM |
| CCOC(=O)C(C(O)c1ccc([N+](=O)[O-])cc1)P(=O)(OCC)OCC (centres undefined) | inactive: > 100 µM |
| CCO/C=C1\N=C(c2ccc(Cl)c(Cl)c2)OC1=O | inactive: 64.4 µM |
| CC(C)(C)c1cc(C#N)c2c(c1)C(=O)OC2(c1ccccc1)c1ccccc1C#N (centres undefined) | inactive: > 100 µM |
| COC(=O)Nc1nc2cc(NS(=O)(=O)c3cccs3)ccc2[nH]1 | inactive: 37.3 µM |
| CN(C)CCn1c(=O)c2ccc(NCCNCCO)c3c(=O)c4cc(O)ccc4n(c1=O)c23 | active: 0.826 µM |
| Cc1ccc(S(=O)(=O)N/N=C/c2oc(-c3cccc([N+](=O)[O-])c3)c(-c3cccc([N+](=O)[O-])c3)c2[N+](=O)[O-])cc1 | inactive: > 100 µM |
| CCOC(=O)/C(C#N)=C/c1coc2cc(C)cc(C)c2c1=O | inactive: > 100 µM |
| N#CC1CCCCC1NC1(C#N)CCCCC1 (centres undefined) | inactive: > 100 µM |
| O=C(/C(=C/c1ccc(Cl)cc1)c1ccccc1)c1ccccc1 | inactive: 26.5 µM |
| O=C1CCN2C(=Nc3cccc4cccc2c34)N1 | inactive: > 100 µM |
| FC(F)(F)c1ccccc1C1SCC2=Nc3ccccc3CN21 (centres undefined) | inactive: 12.8 µM |
| COc1ccc(NC(=O)Oc2cc(C)c3ccc(=O)cc-3o2)c(OC)c1.COc1ccc(NC(=O)Oc2ccc3c(C)cc(=O)oc3c2)c(OC)c1 | inactive: > 100 µM |

| Compound | GI50 |
| --- | --- |
| N#Cc1c(N)oc(-c2ccc([N+](=O)[O-])cc2)c1C#N | inactive: 24.7 µM |
| Oc1cc(CN2CCOCCOCCOCCOCC2)c(O)cc1CN1CCOCCOCCOCCOCC1 | inactive: > 100 µM |
| COC(=O)c1ccccc1C#CCCCOS(C)(=O)=O | inactive: > 10 µM |
| CCOC(=O)C1C(c2ccc3c(c2)OCO3)c2c(n[nH]c2O)CC1(C)O (centres undefined) | inactive: > 100 µM |
| O=C(Nc1ccccc1)Oc1ccc(C(=S)Nc2ccc(Br)cc2)cc1 | inactive: 19.7 µM |
| Clc1ccc(-c2nnc3c4nnc(-c5ccc(Cl)cc5Cl)n4c4ccccc4n23)c(Cl)c1 | inactive: > 100 µM |
| NNC(=O)C(=O)NN=C(C(Cl)(Cl)CO)C(Cl)(Cl)CO | inactive: > 100 µM |
| COc1ccc(-c2csc(-n3c(-c4ccccc4)nc4c(Br)cc(Br)cc4c3=O)n2)cc1 | inactive: 28.2 µM |
| Cc1ncc([N+](=O)[O-])n1CC(O)Cn1cnc([N+](=O)[O-])n1 (centres undefined) | inactive: > 100 µM |
| CN(CCCCCl)P(=O)(OCC1=CC(=O)c2ccccc2C1=O)OC[C@H]1O[C@@H](n2cc(F)c(=O)[nH]c2=O)C[C@@H]1O (some centres undefined) | inactive: 2.47 µM |
| O=C1NC(=S)N/C1=C\c1ccc(Sc2ccccc2C(=O)O)s1 | inactive: > 100 µM |
| CC1(CCCCO)C=CC(S(=O)(=O)c2ccccc2)CC1 (centres undefined) | inactive: 6.44 µM |
| O=C(O)COc1ccc2c3c1C(=O)CCC3CO2 (centres undefined) | inactive: > 100 µM |
| COc1cc2c(cc1OC)C1(c3ccc(Cl)cc3)ON=C(c3ccccc3)N1CS2 (centres undefined) | inactive: > 100 µM |
| COC(=O)[C@H](CNC(=O)/C=C/c1ccc(OC(C)=O)c(OC(C)=O)c1)NC(=O)/C=C/c1ccc(OC(C)=O)c(OC(C)=O)c1 | inactive: > 100 µM |
| CN(Cc1cc(Br)cc(Br)c1O)Cc1c(O)ccc2ccccc12 | inactive: 16.4 µM |
| CS(=O)(=O)c1ccc(/N=C/C=C/Nc2ccc(S(C)(=O)=O)cc2)cc1 | inactive: > 100 µM |
| CC(=O)OC1CC2C(C)(C)OC(=O)CC(OC(C)=O)[C@]2(C)C2CCC3(C)C(=CCC3[C@H]3COC(=O)C3)[C@]12C (some centres undefined) | inactive: > 100 µM |
| N#Cc1cc(Sc2ccc(N)c(C#N)c2)ccc1N | inactive: 18.1 µM |
| COC(=O)CC(CNC(=O)OCc1ccccc1)OCc1ccc(OC)cc1 (centres undefined) | inactive: > 100 µM |
| C[C@]12CCC3c4ccc(O)cc4CC[C@H]3C1CC(=O)N(CCN1CCCC1)C2=O (some centres undefined) | inactive: > 10 µM |
| O=C(O)CC(NC(=O)/C(=C/c1ccccc1)NC(=O)c1ccccc1)C(=O)O (centres undefined) | inactive: > 100 µM |
| O=C(NC1CCN(Cc2ccccc2)CC1)c1ccc(I)cc1 | inactive: > 100 µM |

| Compound | GI50 |
| --- | --- |
| CC1(C)CCCC2(C)[C@@H]1CC[C@@]13CC(=O)[C@@](C)(CC[C@@H]21)C3 (some centres undefined) | inactive: > 100 µM |
| NCCc1cc(O)c(O)cc1O [OXIDOPAMINE HYDROCHLORIDE] | inactive: 58.9 µM |
| Cc1ccc(NC(=O)C(=O)C2NC(=S)NC2=O)c([N+](=O)[O-])c1 (centres undefined) | inactive: > 100 µM |
| CC(C)(C)C1=CC(=NNC(=S)NCc2ccccc2)C=C(C(C)(C)C)C1=O | inactive: > 100 µM |
| c1ccc(CNn2nnc3ccccc32)cc1 | inactive: > 100 µM |
| Cc1cc2nc(N3C(=O)/C(=C/c4ccc(Oc5ccccc5)cc4)N=C3c3ccccc3)sc2cc1C | inactive: > 100 µM |
| COc1ccc(-c2oc3cc(O)cc(O)c3c(=O)c2OC)cc1 [ERMANIN] | inactive: 33.5 µM |
| CC1(C(=O)O)CCCC1C(=O)O (centres undefined) | inactive: > 100 µM |
| COC(=O)C1CCc2c(OC)ccc(OC)c2C1=O (centres undefined) | inactive: > 100 µM |
| COc1cc(C2c3cc4c(cc3[C@@H](N(C)C)[C@H]3COC(=O)C23)OCO4)cc(OC)c1O (some centres undefined) | inactive: > 100 µM |
| O=C1NN=C2C=C(c3ccc(Cl)cc3)CC(c3cccc(Br)c3)C12 (centres undefined) | inactive: > 100 µM |
| CCOC(=O)CCC1(C(=O)OCC)CCCCC1=O (centres undefined) | inactive: > 100 µM |
| CC(C)[C@H](NC(=O)[C@H](C(C)C)N(Cc1ccccc1)Cc1ccccc1)C(=O)N(C)[C@H](C(=O)N1CCC[C@H]1C(=O)N(C)[C@H](C)C(=O)NCc1ccc(F)cc1)C(C)C (Bn2Val-V[NMeV]P[dNMeA]-{NH(4-F-benzyl)}) | inactive: 4.63 µM |
| Cc1ccc2oc(=O)c(C(=O)Nc3nc(C45CC6CC(CC(C6)C4)C5)cs3)cc2c1 | inactive: > 100 µM |
| Cc1cccc(/N=C/C=C(\Cl)c2ccc3ccccc3c2)c1 | inactive: 23 µM |
| COc1cc2oc(=O)cc(C)c2c(OC)c1OC(C)=O | inactive: > 100 µM |
| S=C(N/N=C/c1ccco1)NC12CC3CC(CC(C3)C1)C2 | inactive: > 100 µM |
| COc1cc2c(cc1O)C1CC(CC3CCCCN31)OC(=O)/C=C\c1ccc(O)c-2c1 (centres undefined) | inactive: 24.2 µM |
| CCOC(=O)/C=C/CCC(C)(C)COC(C)=O | inactive: > 10 µM |
| O=C(Cn1c2ccc(Br)cc2c2nc3ccccc3nc21)Nc1ccccc1 | inactive: 54.2 µM |
